{"source": "the supplement of paper PMC8728848", "binders": {"B1": {"name": "Epa15 (Candida glabrata) (protein)", "chain": "MGSSHHHHHHSSGLVPRGSHMASDPTTFPLGCSPEFTKTKKGLSMELYRYDYLPPGSYPCWDSAYLNPSYPRTGYKAKKLIATVDGVSGDINFKFNPKFGCKAIPDYLPSNFNYHEPITITNFTMILYGYFMPKTTAFHTFYVTADDLLFMNFGAGNAFDCCRREETADKFGNYAAYSVWGKKSLKNELTVYLHTGVYYPIRLFYNNRDYIAQLDIRFKTEHSNAIITNFTDYFYSVDDSSLGCPGLI"}}, "test_in_all_cases": "glycan array binding signal (z-score within array); higher = stronger binding", "settings_in_all_cases": "glycan notation: IUPAC condensed, linker removed", "key": {"[1]": {"target": "GlcNAc(b1-3)Gal(b1-4)GlcNAc(b1-2)Man(a1-3)[GlcNAc(b1-3)Gal(b1-4)GlcNAc(b1-2)Man(a1-6)]Man(b1-4)GlcNAc(b1-4)[Fuc(a1-6)]GlcNAc", "procedure,_shortened": "(§1)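 Negative Z-scores can be read as non-binding. The Z-score is calculated within each array and then averaged across arrays of one protein sequence at different concentrations or buffers and across linkers. Arrays, 3228 in all, were curated from the Consortium for Functional Glycomics database and kept only where the protein sequence was available.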"}, "[2]": {"target": "GlcNAc(b1-3)Gal(b1-4)GlcNAc(b1-2)[GlcNAc(b1-3)Gal(b1-4)GlcNAc(b1-6)]Man(a1-6)[GlcNAc(b1-3)Gal(b1-4)GlcNAc(b1-2)Man(a1-3)]Man(b1-4)GlcNAc(b1-4)GlcNAc", "procedure,_shortened": "as §1"}, "[3]": {"target": "GlcNAc(b1-3)Gal(b1-4)GlcNAc(b1-3)Gal(b1-4)GlcNAc", "procedure,_shortened": "as §1"}, "[4]": {"target": "GlcNAc(b1-3)Gal(b1-4)GlcNAc(b1-3)Gal(b1-4)GlcNAc(b1-2)Man(a1-3)[GlcNAc(b1-3)Gal(b1-4)GlcNAc(b1-3)Gal(b1-4)GlcNAc(b1-2)Man(a1-6)]Man(b1-4)GlcNAc(b1-4)GlcNAc", "procedure,_shortened": "as §1"}, "[5]": {"target": "GlcNAc(b1-3)Gal(b1-4)GlcNAc(b1-3)Gal(b1-4)GlcNAc(b1-2)Man(a1-3)[GlcNAc(b1-3)Gal(b1-4)GlcNAc(b1-3)Gal(b1-4)GlcNAc(b1-2)Man(a1-6)]Man(b1-4)GlcNAc(b1-4)[Fuc(a1-6)]GlcNAc", "procedure,_shortened": "as §1"}, "[6]": {"target": "GlcNAc(b1-3)Gal(b1-4)GlcNAc(b1-3)Gal(b1-4)GlcNAc(b1-2)[GlcNAc(b1-3)Gal(b1-4)GlcNAc(b1-3)Gal(b1-4)GlcNAc(b1-6)]Man(a1-6)[GlcNAc(b1-3)Gal(b1-4)GlcNAc(b1-3)Gal(b1-4)GlcNAc(b1-2)Man(a1-3)]Man(b1-4)GlcNAc(b1-4)[Fuc(a1-6)]GlcNAc", "procedure,_shortened": "as §1"}, "[7]": {"target": "GlcNAc(b1-3)Gal(b1-4)GlcNAc(b1-3)Gal(b1-4)GlcNAc(b1-3)Gal(b1-4)GlcNAc(b1-2)Man(a1-3)[GlcNAc(b1-3)Gal(b1-4)GlcNAc(b1-3)Gal(b1-4)GlcNAc(b1-3)Gal(b1-4)GlcNAc(b1-2)Man(a1-6)]Man(b1-4)GlcNAc(b1-4)GlcNAc", "procedure,_shortened": "as §1"}, "[8]": {"target": "GlcNAc(b1-3)Gal(b1-4)GlcNAc(b1-3)Gal(b1-4)GlcNAc(b1-3)Gal(b1-4)GlcNAc(b1-2)Man(a1-3)[GlcNAc(b1-3)Gal(b1-4)GlcNAc(b1-3)Gal(b1-4)GlcNAc(b1-3)Gal(b1-4)GlcNAc(b1-2)Man(a1-6)]Man(b1-4)GlcNAc(b1-4)[Fuc(a1-6)]GlcNAc", "procedure,_shortened": "as §1"}, "[9]": {"target": "GlcNAc(b1-3)Gal(b1-4)GlcNAc(b1-3)Gal(b1-4)GlcNAc(b1-3)Gal(b1-4)GlcNAc(b1-2)[GlcNAc(b1-3)Gal(b1-4)GlcNAc(b1-3)Gal(b1-4)GlcNAc(b1-3)Gal(b1-4)GlcNAc(b1-6)]Man(a1-6)[GlcNAc(b1-3)Gal(b1-4)GlcNAc(b1-3)Gal(b1-4)GlcNAc(b1-3)Gal(b1-4)GlcNAc(b1-2)Man(a1-3)]Man(b1-4)GlcNAc(b1-4)[Fuc(a1-6)]GlcNAc", "procedure,_shortened": "as §1"}, "[10]": {"target": "GlcNAc(b1-3)Gal(b1-4)GlcNAc(b1-3)Gal(b1-4)GlcNAc(b1-3)Gal(b1-4)GlcNAc(b1-3)Gal(b1-4)GlcNAc(b1-2)Man(a1-3)[GlcNAc(b1-3)Gal(b1-4)GlcNAc(b1-3)Gal(b1-4)GlcNAc(b1-3)Gal(b1-4)GlcNAc(b1-3)Gal(b1-4)GlcNAc(b1-2)Man(a1-6)]Man(b1-4)GlcNAc(b1-4)GlcNAc", "procedure,_shortened": "as §1"}, "[11]": {"target": "GlcNAc(b1-3)Gal(b1-4)GlcNAc(b1-3)Gal(b1-4)GlcNAc(b1-3)Gal(b1-4)GlcNAc(b1-3)Gal(b1-4)GlcNAc(b1-2)Man(a1-3)[GlcNAc(b1-3)Gal(b1-4)GlcNAc(b1-3)Gal(b1-4)GlcNAc(b1-3)Gal(b1-4)GlcNAc(b1-3)Gal(b1-4)GlcNAc(b1-2)Man(a1-6)]Man(b1-4)GlcNAc(b1-4)[Fuc(a1-6)]GlcNAc", "procedure,_shortened": "as §1"}, "[12]": {"target": "GlcNAc(b1-3)Gal(b1-4)GlcNAc(b1-3)Gal(b1-4)GlcNAc(b1-3)Gal(b1-4)GlcNAc(b1-3)Gal(b1-4)GlcNAc(b1-2)[GlcNAc(b1-3)Gal(b1-4)GlcNAc(b1-3)Gal(b1-4)GlcNAc(b1-3)Gal(b1-4)GlcNAc(b1-3)Gal(b1-4)GlcNAc(b1-6)]Man(a1-6)[GlcNAc(b1-3)Gal(b1-4)GlcNAc(b1-3)Gal(b1-4)GlcNAc(b1-3)Gal(b1-4)GlcNAc(b1-3)Gal(b1-4)GlcNAc(b1-2)Man(a1-3)]Man(b1-4)GlcNAc(b1-4)[Fuc(a1-6)]GlcNAc", "procedure,_shortened": "as §1"}, "[13]": {"target": "GlcNAc(b1-3)Gal(b1-4)GlcNAc(b1-3)Gal(b1-4)GlcNAc(b1-3)GalNAc", "procedure,_shortened": "as §1"}, "[14]": {"target": "GlcNAc(b1-3)Gal(b1-4)GlcNAc(b1-3)GalNAc", "procedure,_shortened": "as §1"}, "[15]": {"target": "GlcNAc(b1-3)Gal(b1-4)GlcNAc(b1-3)[GlcNAc(b1-3)Gal(b1-4)GlcNAc(b1-3)]GalNAc", "procedure,_shortened": "as §1"}, "[16]": {"target": "GlcNAc(b1-3)Gal(b1-4)GlcNAc(b1-6)[Gal(b1-3)]GalNAc", "procedure,_shortened": "as §1"}, "[17]": {"target": "GlcNAc(b1-3)Gal(b1-4)GlcNAc(b1-6)[GlcNAc(b1-3)Gal(b1-3)]GalNAc", "procedure,_shortened": "as §1"}, "[18]": {"target": "GlcNAc(b1-3)Gal(b1-4)GlcNAc(b1-6)[GlcNAc(b1-3)]Gal(b1-4)GlcNAc", "procedure,_shortened": "as §1"}, "GlcNAc(b1-3)GalNAc": {"target": "GlcNAc(b1-3)GalNAc", "procedure,_shortened": "as §1"}, "GlcNAc(b1-3)Man": {"target": "GlcNAc(b1-3)Man", "procedure,_shortened": "as §1"}, "[19]": {"target": "GlcNAc(b1-3)[GlcNAc(b1-4)][GlcNAc(b1-6)]GlcNAc", "procedure,_shortened": "as §1"}, "[20]": {"target": "GlcNAc(b1-3)[GlcNAc(b1-6)]Gal(b1-4)GlcNAc", "procedure,_shortened": "as §1"}, "[21]": {"target": "GlcNAc(b1-3)[GlcNAc(b1-6)]GalNAc", "procedure,_shortened": "as §1"}, "[22]": {"target": "GlcNAc(b1-3)[GlcNAc(b1-6)]GlcNAc", "procedure,_shortened": "as §1"}, "[23]": {"target": "GlcNAc(b1-4)Gal(b1-4)GlcNAc", "procedure,_shortened": "as §1"}, "GlcNAc(b1-4)GlcNAc": {"target": "GlcNAc(b1-4)GlcNAc", "procedure,_shortened": "as §1"}, "[24]": {"target": "GlcNAc(b1-4)GlcNAc(b1-4)GlcNAc", "procedure,_shortened": "as §1"}, "[25]": {"target": "GlcNAc(b1-4)GlcNAc(b1-4)GlcNAc(b1-4)GlcNAc(b1-4)GlcNAc", "procedure,_shortened": "as §1"}, "[26]": {"target": "GlcNAc(b1-4)GlcNAc(b1-4)GlcNAc(b1-4)GlcNAc(b1-4)GlcNAc(b1-4)GlcNAc", "procedure,_shortened": "as §1"}, "[27]": {"target": "GlcNAc(b1-4)[GlcNAc(b1-6)]GalNAc", "procedure,_shortened": "as §1"}, "[28]": {"target": "GlcNAc(b1-6)Gal(b1-4)GlcNAc", "procedure,_shortened": "as §1"}, "GlcNAc(b1-6)GalNAc": {"target": "GlcNAc(b1-6)GalNAc", "procedure,_shortened": "as §1"}, "[29]": {"target": "GlcNAc6S(b1-3)Gal(b1-4)GlcNAc", "procedure,_shortened": "as §1"}, "Kdn(a2-3)Gal(b1-3)GalNAc": {"target": "Kdn(a2-3)Gal(b1-3)GalNAc", "procedure,_shortened": "as §1"}, "Kdn(a2-3)Gal(b1-3)GlcNAc": {"target": "Kdn(a2-3)Gal(b1-3)GlcNAc", "procedure,_shortened": "as §1"}, "Kdn(a2-3)Gal(b1-4)Glc": {"target": "Kdn(a2-3)Gal(b1-4)Glc", "procedure,_shortened": "as §1"}, "Kdn(a2-3)Gal(b1-4)GlcNAc": {"target": "Kdn(a2-3)Gal(b1-4)GlcNAc", "procedure,_shortened": "as §1"}}, "note": "The other results are listed elsewhere or left out.", "data": [{"binder": "B1", "values": [{"measurement": "glycan array binding signal (z-score)", "setting": "[1]", "result": 0.2}, {"measurement": "glycan array binding signal (z-score)", "setting": "[2]", "result": 0.605}, {"measurement": "glycan array binding signal (z-score)", "setting": "[3]", "result": -0.507}, {"measurement": "glycan array binding signal (z-score)", "setting": "[4]", "result": 0.271}, {"measurement": "glycan array binding signal (z-score)", "setting": "[5]", "result": 0.052}, {"measurement": "glycan array binding signal (z-score)", "setting": "[6]", "result": 0.174}, {"measurement": "glycan array binding signal (z-score)", "setting": "[7]", "result": 0.304}, {"measurement": "glycan array binding signal (z-score)", "setting": "[8]", "result": 0.25}, {"measurement": "glycan array binding signal (z-score)", "setting": "[9]", "result": 0.235}, {"measurement": "glycan array binding signal (z-score)", "setting": "[10]", "result": -0.399}, {"measurement": "glycan array binding signal (z-score)", "setting": "[11]", "result": 0.615}, {"measurement": "glycan array binding signal (z-score)", "setting": "[12]", "result": 0.574}, {"measurement": "glycan array binding signal (z-score)", "setting": "[13]", "result": -0.295}, {"measurement": "glycan array binding signal (z-score)", "setting": "[14]", "result": -0.062}, {"measurement": "glycan array binding signal (z-score)", "setting": "[15]", "result": 0.113}, {"measurement": "glycan array binding signal (z-score)", "setting": "[16]", "result": -0.125}, {"measurement": "glycan array binding signal (z-score)", "setting": "[17]", "result": -0.188}, {"measurement": "glycan array binding signal (z-score)", "setting": "[18]", "result": -0.516}, {"measurement": "glycan array binding signal (z-score)", "setting": "GlcNAc(b1-3)GalNAc", "result": -0.52}, {"measurement": "glycan array binding signal (z-score)", "setting": "GlcNAc(b1-3)Man", "result": -0.578}, {"measurement": "glycan array binding signal (z-score)", "setting": "[19]", "result": -0.536}, {"measurement": "glycan array binding signal (z-score)", "setting": "[20]", "result": -0.382}, {"measurement": "glycan array binding signal (z-score)", "setting": "[21]", "result": -0.581}, {"measurement": "glycan array binding signal (z-score)", "setting": "[22]", "result": -0.28}, {"measurement": "glycan array binding signal (z-score)", "setting": "[23]", "result": -0.426}, {"measurement": "glycan array binding signal (z-score)", "setting": "GlcNAc(b1-4)GlcNAc", "result": -0.491}, {"measurement": "glycan array binding signal (z-score)", "setting": "[24]", "result": -0.534}, {"measurement": "glycan array binding signal (z-score)", "setting": "[25]", "result": 0.079}, {"measurement": "glycan array binding signal (z-score)", "setting": "[26]", "result": -0.023}, {"measurement": "glycan array binding signal (z-score)", "setting": "[27]", "result": -0.458}, {"measurement": "glycan array binding signal (z-score)", "setting": "[28]", "result": 0.77}, {"measurement": "glycan array binding signal (z-score)", "setting": "GlcNAc(b1-6)GalNAc", "result": -0.36}, {"measurement": "glycan array binding signal (z-score)", "setting": "[29]", "result": 0.004}, {"measurement": "glycan array binding signal (z-score)", "setting": "Kdn(a2-3)Gal(b1-3)GalNAc", "result": -0.011}, {"measurement": "glycan array binding signal (z-score)", "setting": "Kdn(a2-3)Gal(b1-3)GlcNAc", "result": -0.172}, {"measurement": "glycan array binding signal (z-score)", "setting": "Kdn(a2-3)Gal(b1-4)Glc", "result": 0.002}, {"measurement": "glycan array binding signal (z-score)", "setting": "Kdn(a2-3)Gal(b1-4)GlcNAc", "result": -0.317}]}]}
